# Some of the results follow.
# Legend:
# Test in all cases: glycan array binding signal (z-score within array); higher = stronger binding
# Conditions in all cases: glycan notation: IUPAC condensed, linker removed
# Fuc(a1-2)Gal = target: Fuc(a1-2)Gal
# Method in brief: (§1)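 Glycan array data came from 3228 arrays in the Consortium for Functional Glycomics database, and only arrays with an available protein sequence were kept. Glycan names were put into IUPAC-condensed notation, and columns mapping to the same glycan were averaged. The binding signal is a within-array Z-score, averaged across arrays of one protein sequence run at different concentrations or buffers and across linkers. A negative Z-score can be read as non-binding.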
# Fuc(a1-2)Gal(b1-3)GalNAc = target: Fuc(a1-2)Gal(b1-3)GalNAc
# Method in brief: as §1
# [1] = target: Fuc(a1-2)Gal(b1-3)GalNAc(b1-3)Gal
# Method in brief: as §1
# [2] = target: Fuc(a1-2)Gal(b1-3)GalNAc(b1-3)Gal(a1-4)Gal(b1-4)Glc
# Method in brief: as §1
# [3] = target: Fuc(a1-2)Gal(b1-3)GalNAc(b1-4)[Neu5Ac(a2-3)]Gal(b1-4)Glc
# Method in brief: as §1
# Fuc(a1-2)Gal(b1-3)GlcNAc = target: Fuc(a1-2)Gal(b1-3)GlcNAc
# Method in brief: as §1
# [4] = target: Fuc(a1-2)Gal(b1-3)GlcNAc(b1-3)Gal(b1-4)Glc
# Method in brief: as §1
# [5] = target: Fuc(a1-2)Gal(b1-3)[Fuc(a1-4)]GlcNAc
# Method in brief: as §1
# Fuc(a1-2)Gal(b1-4)Glc = target: Fuc(a1-2)Gal(b1-4)Glc
# Method in brief: as §1
# Fuc(a1-2)Gal(b1-4)GlcNAc = target: Fuc(a1-2)Gal(b1-4)GlcNAc
# Method in brief: as §1
# [6] = target: Fuc(a1-2)Gal(b1-4)GlcNAc(b1-3)Gal(b1-4)GlcNAc
# Method in brief: as §1
# [7] = target: Fuc(a1-2)Gal(b1-4)GlcNAc(b1-3)Gal(b1-4)GlcNAc(b1-3)Gal(b1-4)GlcNAc
# Method in brief: as §1
# [8] = target: Fuc(a1-2)Gal(b1-4)[Fuc(a1-3)]GlcNAc
# Method in brief: as §1
# [9] = target: Fuc(a1-2)Gal(b1-4)[Fuc(a1-3)]GlcNAc(b1-3)Gal(b1-4)[Fuc(a1-3)]GlcNAc
# Method in brief: as §1
# [10] = target: Fuc(a1-2)Gal(b1-4)[Fuc(a1-3)]GlcNAc(b1-3)Gal(b1-4)[Fuc(a1-3)]GlcNAc(b1-3)Gal(b1-4)[Fuc(a1-3)]GlcNAc
# Method in brief: as §1
# Fuc(a1-2)GlcNAc = target: Fuc(a1-2)GlcNAc
# Method in brief: as §1
# Fuc(a1-2)[Gal(a1-3)]Gal = target: Fuc(a1-2)[Gal(a1-3)]Gal
# Method in brief: as §1
# [11] = target: Fuc(a1-2)[Gal(a1-3)]Gal(b1-3)GlcNAc
# Method in brief: as §1
# [12] = target: Fuc(a1-2)[Gal(a1-3)]Gal(b1-4)Glc
# Method in brief: as §1
# [13] = target: Fuc(a1-2)[Gal(a1-3)]Gal(b1-4)GlcNAc
# Method in brief: as §1
# [14] = target: Fuc(a1-2)[Gal(a1-3)]Gal(b1-4)[Fuc(a1-3)]GlcNAc
# Method in brief: as §1
# [15] = target: Fuc(a1-2)[Gal(a1-4)]Gal(b1-4)GlcNAc
# Method in brief: as §1
# [16] = target: Fuc(a1-2)[GalNAc(a1-3)]Gal
# Method in brief: as §1
# [17] = target: Fuc(a1-2)[GalNAc(a1-3)]Gal(b1-3)GlcNAc
# Method in brief: as §1
# [18] = target: Fuc(a1-2)[GalNAc(a1-3)]Gal(b1-4)Glc
# Method in brief: as §1
# [19] = target: Fuc(a1-2)[GalNAc(a1-3)]Gal(b1-4)GlcNAc
# Method in brief: as §1
# [20] = target: Fuc(a1-2)[GalNAc(a1-3)]Gal(b1-4)[Fuc(a1-3)]GlcNAc
# Method in brief: as §1
# [21] = target: Fuc(a1-2)[GalNAc(a1-4)]Gal(b1-4)GlcNAc
# Method in brief: as §1
# [22] = target: Fuc(a1-2)[GalNAc(b1-3)]Gal
# Method in brief: as §1
# Fuc(a1-3)GlcNAc = target: Fuc(a1-3)GlcNAc
# Method in brief: as §1
binder,measurement,setting,value
"DEC205 (Homo sapiens), O60449 (protein) MRTGWATPRRPAGLLMLLFWFFDLAEPSGRAANDPFTIVHGNTGKCIKPVYGWIVADDCDETEDKLWKWVSQHRLFHLHSQKCLGLDITKSVNELRMFSCDSSAMLWWKCEHHSLYGAARYRLALKDGHGTAISNASDVWKKGGSEESLCDQPYHEIYTRDGNSYGRPCEFPFLIDGTWHHDCILDEDHSGPWCATTLNYEYDRKWGICLKPENGCEDNWEKNEQFGSCYQFNTQTALSWKEAYVSCQNQGADLLSINSAAELTYLKEKEGIAKIFWIGLNQLYSARGWEWSDHKPLNFLNWDPDRPSAPTIGGSSCARMDAESGLWQSFSCEAQLPYVCRKPLNNTVELTDVWTYSDTRCDAGWLPNNGFCYLLVNESNSWDKAHAKCKAFSSDLISIHSLADVEVVVTKLHNEDIKEEVWIGLKNINIPTLFQWSDGTEVTLTYWDENEPNVPYNKTPNCVSYLGELGQWKVQSCEEKLKYVCKRKGEKLNDASSDKMCPPDEGWKRHGETCYKIYEDEVPFGTNCNLTITSRFEQEYLNDLMKKYDKSLRKYFWTGLRDVDSCGEYNWATVGGRRRAVTFSNWNFLEPASPGGCVAMSTGKSVGKWEVKDCRSFKALSICKKMSGPLGPEEASPKPDDPCPEGWQSFPASLSCYKVFHAERIVRKRNWEEAERFCQALGAHLSSFSHVDEIKEFLHFLTDQFSGQHWLWIGLNKRSPDLQGSWQWSDRTPVSTIIMPNEFQQDYDIRDCAAVKVFHRPWRRGWHFYDDREFIYLRPFACDTKLEWVCQIPKGRTPKTPDWYNPDRAGIHGPPLIIEGSEYWFVADLHLNYEEAVLYCASNHSFLATITSFVGLKAIKNKIANISGDGQKWWIRISEWPIDDHFTYSRYPWHRFPVTFGEECLYMSAKTWLIDLGKPTDCSTKLPFICEKYNVSSLEKYSPDSAAKVQCSEQWIPFQNKCFLKIKPVSLTFSQASDTCHSYGGTLPSVLSQIEQDFITSLLPDMEATLWIGLRWTAYEKINKWTDNRELTYSNFHPLLVSGRLRIPENFFEEESRYHCALILNLQKSPFTGTWNFTSCSERHFVSLCQKYSEVKSRQTLQNASETVKYLNNLYKIIPKTLTWHSAKRECLKSNMQLVSITDPYQQAFLSVQALLHNSSLWIGLFSQDDELNFGWSDGKRLHFSRWAETNGQLEDCVVLDTDGFWKTVDCNDNQPGAICYYSGNETEKEVKPVDSVKCPSPVLNTPWIPFQNCCYNFIITKNRHMATTQDEVHTKCQKLNPKSHILSIRDEKENNFVLEQLLYFNYMASWVMLGITYRNNSLMWFDKTPLSYTHWRAGRPTIKNEKFLAGLSTDGFWDIQTFKVIEEAVYFHQHSILACKIEMVDYKEEHNTTLPQFMPYEDGIYSVIQKKVTWYEALNMCSQSGGHLASVHNQNGQLFLEDIVKRDGFPLWVGLSSHDGSESSFEWSDGSTFDYIPWKGQTSPGNCVLLDPKGTWKHEKCNSVKDGAICYKPTKSKKLSRLTYSSRCPAAKENGSRWIQYKGHCYKSDQALHSFSEAKKLCSKHDHSATIVSIKDEDENKFVSRLMRENNNITMRVWLGLSQHSVDQSWSWLDGSEVTFVKWENKSKSGVGRCSMLIASNETWKKVECEHGFGRVVCKVPLGPDYTAIAIIVATLSILVLMGGLIWFLFQRHRLHLAGFSSVRYAQGVNEDEIMLPSFHD",glycan array binding signal (z-score),Fuc(a1-2)Gal,0.066
same,glycan array binding signal (z-score),Fuc(a1-2)Gal(b1-3)GalNAc,-0.184
same,glycan array binding signal (z-score),[1],-0.204
same,glycan array binding signal (z-score),[2],-0.222
same,glycan array binding signal (z-score),[3],-0.153
same,glycan array binding signal (z-score),Fuc(a1-2)Gal(b1-3)GlcNAc,-0.267
same,glycan array binding signal (z-score),[4],0.287
same,glycan array binding signal (z-score),[5],-0.294
same,glycan array binding signal (z-score),Fuc(a1-2)Gal(b1-4)Glc,0.017
same,glycan array binding signal (z-score),Fuc(a1-2)Gal(b1-4)GlcNAc,0.063
same,glycan array binding signal (z-score),[6],-0.152
same,glycan array binding signal (z-score),[7],0.127
same,glycan array binding signal (z-score),[8],-0.133
same,glycan array binding signal (z-score),[9],-0.263
same,glycan array binding signal (z-score),[10],1.97
same,glycan array binding signal (z-score),Fuc(a1-2)GlcNAc,-0.186
same,glycan array binding signal (z-score),Fuc(a1-2)[Gal(a1-3)]Gal,-0.222
same,glycan array binding signal (z-score),[11],-0.161
same,glycan array binding signal (z-score),[12],-0.208
same,glycan array binding signal (z-score),[13],-0.128
same,glycan array binding signal (z-score),[14],-0.114
same,glycan array binding signal (z-score),[15],-0.146
same,glycan array binding signal (z-score),[16],-0.09
same,glycan array binding signal (z-score),[17],-0.271
same,glycan array binding signal (z-score),[18],-0.153
same,glycan array binding signal (z-score),[19],-0.028
same,glycan array binding signal (z-score),[20],-0.211
same,glycan array binding signal (z-score),[21],-0.122
same,glycan array binding signal (z-score),[22],-0.128
same,glycan array binding signal (z-score),Fuc(a1-3)GlcNAc,-0.24

# From the supplement of paper PMC8728848
